# Measurements: PubChem BioAssay AID485344 (National Center for Advancing Translational Sciences (NCATS), 2010)
# About 6,900 (2%) of roughly 340,000 compounds were called active. No stated cut-off is given here; in the data, active means inhibition above about 30%; inactive means below that, where a call was filed. The entries are a selection whose mix differs from that of the whole data set. Entries without a call were filed so in the source.
# Target: D(2) dopamine receptor (Homo sapiens) (UniProt P14416)
# Test: HTS Assay for Allosteric Antagonists of the Human D2 Dopamine Receptor: Primary Screen for Antagonists; further: 0% is about no effect
# Details: HEK293 TREx D2 cells, calcium flux, dopamine EC80; at 10 µM; stronger effect = higher value
# Method in brief: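 Calcium flux kinetic readout in an inducible HEK293 TREx D2 line plated overnight at 30 C. After 180 s compound exposure, an EC80 dopamine challenge follows with another 180 s kinetic read to detect antagonism.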
# UniProt P14416, sequence (P14416 whole entry, looked up): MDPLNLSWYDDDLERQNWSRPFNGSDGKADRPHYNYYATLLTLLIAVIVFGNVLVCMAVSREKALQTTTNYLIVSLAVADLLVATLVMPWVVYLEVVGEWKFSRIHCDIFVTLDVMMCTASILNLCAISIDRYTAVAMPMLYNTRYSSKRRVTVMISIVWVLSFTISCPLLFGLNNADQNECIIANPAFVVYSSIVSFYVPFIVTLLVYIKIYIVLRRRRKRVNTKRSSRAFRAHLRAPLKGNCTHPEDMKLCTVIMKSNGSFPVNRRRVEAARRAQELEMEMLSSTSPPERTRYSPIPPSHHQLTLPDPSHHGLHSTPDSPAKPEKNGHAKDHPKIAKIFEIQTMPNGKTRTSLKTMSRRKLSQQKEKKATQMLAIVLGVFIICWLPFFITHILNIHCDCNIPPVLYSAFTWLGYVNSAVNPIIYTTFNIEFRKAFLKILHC
row,SMILES,inhibition
1,COc1ccc(CCNc2nc3ccc(Cl)cc3n3cnnc23)cc1OC,0.166%
2,O=C(NCCc1csc(-c2ccc(Cl)cc2)n1)c1ccco1,3.03%
3,O=C(CCc1ccccc1)N(Cc1cccnc1)c1nc2c(F)cc(F)cc2s1,-8.02%
4,Cc1ccc(C)c(NC(=O)N(C)CCc2c(C)nn(C)c2C)c1,6.75%
5,CC(C)c1ccc(-c2noc(SCC(=O)N3CCN(c4ccc(F)cc4)CC3)n2)cc1,5.31%
6,COc1ccc(CCNS(=O)(=O)c2cc(-c3cc(C)no3)ccc2OC)cc1OC,-18.4%
7,Cc1ccc(N2CC(C(=O)NCCS(=O)(=O)N3CCN(c4ccccc4)CC3)CC2=O)cc1C (configuration not stated),2.26%
8,Cc1ccc(C)c(Nc2nn3c(=O)c4ccc(C(=O)NCCC5=CCCCC5)cc4nc3s2)c1,0.471%
9,COc1ccc([N+](=O)[O-])cc1NC(=O)C(C)N1CCCC1 (configuration not stated),active: 30.7%
10,CCNc1nc(N)nc(Oc2ccc(OCC(=O)OC)nn2)n1,25%
11,CCOc1ccc(-c2nc(CNC(=O)NC3CCCCC3)c(C)o2)cc1,-14.6%
12,COc1ccc(-n2nnnc2-c2cccc(OC)c2)cc1,active: 35.6%
13,Cc1ccc(C(=O)Nc2nc3nc(C)cc(=O)n3[nH]2)cc1,-5.27%
14,COc1ccccc1NC(=O)CN1C(=O)CCSc2ccccc21,-3.94%
15,COc1cc2ccccc2cc1C(=O)NCC(c1cccs1)N(C)C (configuration not stated),active: 55.5%
16,Cc1ccc(Cl)cc1NC(=O)CSCc1cnn(-c2ccccc2)c1-n1cccc1,2.5%
17,Cc1cccc(NS(=O)(=O)c2ccc3c(c2)CCN3C(=O)C2CC2)c1C,10.9%
18,CCN(C(=O)c1cn(C)c(=O)c2ccccc12)c1cccc(C)c1,-7.5%
19,CN1CCN(C(=O)c2ccc3c(c2)N(Cc2ccc(Cl)cc2)C(=O)c2ccccc2S3(=O)=O)CC1,-20%
20,CCC(C)NC(=O)CSCc1nc(-c2ccc(C)cc2)oc1C (configuration not stated),-12.2%
21,O=C(c1ccccc1Br)N(Cc1ccccc1F)C1CCS(=O)(=O)C1 (configuration not stated),11.1%

row,SMILES,inhibition
1,CCOc1ccc(CCNC(=O)c2ccc(-c3nc(CSc4ccccc4)c(C)o3)cc2)cc1,9.88%
2,COc1ccc(OCC(=O)N(Cc2ccc(C)o2)C2CCS(=O)(=O)C2)cc1 (configuration not stated),17.2%
3,Cc1csc(SC(C)C(=O)Nc2ccc(Cl)cn2)n1 (configuration not stated),active: 43.2%
4,CCc1ccc(N(CC)C(=O)c2sc3nc4n(c(=O)c3c2C)CCCC4)cc1,26.2%
5,Cc1c(CC(=O)N2CCN(C(=O)C3COc4ccccc4O3)CC2)c(=O)oc2c(O)c(O)ccc12 (configuration not stated),active: 60%
6,CCN1C(=O)c2ccccc2Sc2ccc(NC(=O)c3cccc(C)c3)cc21,-16.7%
7,Cc1ccc(NC(=O)Nc2cccs2)c(C)c1,-12.2%
8,CN(CCCNC(=O)c1cc2c(=O)n(C)c3ccccc3c2s1)Cc1ccccc1,-19%
9,CCOC(=O)c1cc(OC(=O)c2ccccc2OC)n(-c2ccccc2)n1,-4.73%
10,O=C1c2oc3ccccc3c(=O)c2C(c2cccnc2)N1CCCN1CCOCC1 (configuration not stated),active: 34.6%
11,COc1ccc(CCNC(=O)c2ccc3c(c2)N(Cc2cccc(Cl)c2)C(=O)c2ccccc2S3=O)cc1OC (configuration not stated),-14.9%
12,CCOC(=O)C1CCN(CC(O)COc2ccc(C(C)(C)CC)cc2)CC1 (configuration not stated),active: 80.2%
13,COC(=O)c1c(NC(=O)/C=C/c2ccc(OC)cc2)sc2c1CCC2,5.96%
14,COc1ccc(CNC(=O)CSc2ncc3c(n2)-c2cc(Cl)ccc2N(C)S3(=O)=O)cc1,5.78%
15,CCOC(=O)Cn1c(-c2cccs2)cc2cc(Cl)ccc21,-0.0586%
16,CC(C)c1cnc2c(c1SCC(=O)Nc1ccc(C(N)=O)cc1)c(=O)n(C)c(=O)n2C,15.5%
17,CCc1ccc(NC(=O)CC2C(=O)N(c3ccc(OC)cc3)C(=O)N2Cc2cccs2)cc1 (configuration not stated),4.51%
18,COc1cc(OC)c(N(C)C(=O)CSc2c3c(nc4ccc(Cl)cc24)CCCC3)cc1Cl,-12.5%
19,O=C(Nc1cccc(Cl)c1Cl)c1cc(S(=O)(=O)N2CCCc3ccccc32)ccc1F,22.4%
20,CCC(=O)N1CCCc2cc(S(=O)(=O)N3CCC(C(=O)Nc4cccc(Cl)c4)CC3)ccc21,-6.91%
21,Cc1ccc(C(=O)Nc2ccc3oc(-c4cc(Br)ccc4Cl)nc3c2)cc1,1.53%

row,SMILES,inhibition
1,CCCCCCC(O)(c1ccc(OC)cc1)C(CN1CCOCC1)c1ccccc1 (configuration not stated),active: 30.7%
2,O=c1cc2nc(-c3ccccc3)nc(SCCOc3ccc(Cl)cc3)n2[nH]1,23.1%
3,Cc1nn2c(-c3ccco3)ccnc2c1-c1ccc(Cl)cc1,4.81%
4,CCOC(=O)c1cnc2c(C)cc(C)cc2c1Nc1ccccc1OCC,-14.9%
5,COc1ccc(C(=O)Nc2ccc3oc(-c4cc(Cl)ccc4Cl)nc3c2)cc1Br,5.26%
6,Cc1ccc(C)c(Cn2c(=O)n(-c3ccc(F)cc3)c(=O)c3sc4ccccc4c32)c1,9.97%
7,Clc1cccc(-n2ncc3c(Nc4ccc5c(c4)OCCO5)ncnc32)c1,6.48%
8,COc1ccc(N2CCN(C(=O)Cn3c(-c4cccs4)cc4ccccc43)CC2)cc1,-9.93%
9,CC(=O)N1CCc2cc(S(=O)(=O)NC(Cc3ccccc3)C(=O)Nc3ccc(C)cc3C)ccc21 (configuration not stated),-23.9%
10,O=C(CCCN1CCC(c2ccccc2)C1)c1ccc2c(c1)OCCO2 (configuration not stated),active: 79.1%
11,COc1ccc(NC(=O)CN2C(=O)C(c3ccc(C)cc3)=NC23CCCCCC3)cc1Cl,-10.9%
12,Cc1ccc(/C=C/c2nc3sc(C(=O)O)c(C)c3c(=O)[nH]2)cc1[N+](=O)[O-],active: 32.7%
13,Cc1ccc(NC(=O)c2ccc(CNS(=O)(=O)c3ccc4c(c3)C(C)(C)C(=O)N4C)cc2)cc1,3.94%
14,COc1cccc(-c2nc(SCC(=O)NCC3CCCO3)c(-c3ccc(Cl)cc3)[nH]2)c1 (configuration not stated),-11.7%
15,CN(C)CCNC(=O)C(=O)NCC(c1cccnc1)N1CCN(c2ccccc2)CC1 (configuration not stated),5.46%
16,O=C(Cc1ccccc1)NCC(=O)N1CCCC1,active: 34.6%
17,CCCN(C(=O)Cn1ncc2c([nH]c3ccccc32)c1=O)c1ccc(F)cc1,-10.2%
18,COc1ccc(CCNC(=O)CCn2c(=O)c3ccccc3n(CC(=O)Nc3cc(Cl)ccc3C)c2=O)cc1OC,-2.67%
19,CCOC(=O)C1CCCN(C(=O)c2ccc3c(c2)N(Cc2ccccc2F)C(=O)c2ccccc2S3=O)C1 (configuration not stated),-5.33%
20,CC(=O)c1cccc(NC(=O)CCCSc2nc(-c3ccco3)cc(C(F)(F)F)n2)c1,0.468%
